A lower IC50 marks a more sensitive line; where the fit passes the top or lowest dose, that dose stands as a limit. For AUC the same curve is integrated over the 256-fold range of doses and scaled to a fraction: 1 means no effect, lower means more sensitive. For part of these data: A top dose marked as inferred comes from the curve model; the source does not state it. For part of these data: An entry number marks a drug with two screens in the source, which often give different values.
What was measured:
Assay in all cases: Viability of human cancer cell lines after 72 h of drug (GDSC screen)
OSU-03012 = compound: NCC(=O)Nc1ccc(-n2nc(C(F)(F)F)cc2-c2ccc3c(ccc4ccccc43)c2)cc1 [OSU-03012]; conditions: top dose 16 µM; top dose inferred
Description: (§1)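 Human cancer cell lines in 384-well plates, medium with 10% serum, drug for 72 h over a 256-fold dose range (nine 2-fold or five 4-fold steps up to the top dose). Adherent lines were fixed and stained with the nucleic acid dye Syto60, suspension lines read with resazurin; signal relative to control wells, capped at 0 and 100%. One two-parameter sigmoid per drug and line, fitted in a mixed model over all curves with the slope shared within a line.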

QS11 = compound: OC[C@H](Cc1ccccc1)Nc1nc(Oc2ccc3c(c2)CCC3)nc2c1ncn2Cc1ccc(-c2ccccc2)cc1 [QS11]; conditions: top dose 10.24 µM
Description: as §1

AC220 = compound: CC(C)(C)c1cc(NC(=O)Nc2ccc(-c3cn4c(n3)sc3cc(OCCN5CCOCC5)ccc34)cc2)no1 [AC220]; conditions: top dose 1.024 µM; top dose inferred
Description: as §1

JNK-9L = compound: Fc1cc(-c2ccnc(Nc3ccc(-n4cnc(N5CCOCC5)n4)cc3)n2)cc(N2CCOCC2)c1 [JNK-9L]; conditions: top dose 5.12 µM; top dose inferred
Description: as §1

CUDC-101 = compound: C#Cc1cccc(Nc2ncnc3cc(OC)c(OCCCCCCC(=O)NO)cc23)c1 [CUDC-101]; conditions: top dose 5.12 µM; top dose inferred
Description: as §1

RDEA119 = compound: COc1cc(F)c(F)c(Nc2ccc(I)cc2F)c1NS(=O)(=O)C1(C[C@H](O)CO)CC1 [RDEA119]; conditions: top dose 5 µM, top dose inferred
Description: as §1

5-Fluorouracil = compound: O=c1[nH]cc(F)c(=O)[nH]1 [5-Fluorouracil]; conditions: top dose 32 µM; top dose inferred
Description: as §1

With CHL-1 (melanoma, adherent) the AUC (OSU-03012) was 0.511, the IC50 (OSU-03012) was 1.07 µM and the AUC (QS11) was 0.864. The IC50 (QS11) was 8.12 µM, the AUC (AC220) was 0.986 and the IC50 (AC220) was > 1020 nM. For the same cell line, the AUC (JNK-9L) was 0.571, the IC50 (JNK-9L) was 496 nM and the AUC (CUDC-101) was 0.318. The IC50 (CUDC-101) was 103 nM, the AUC (RDEA119; screen: GDSC drug entry 1014) was 0.623 and the IC50 (RDEA119; screen: GDSC drug entry 1014) was 666 nM. It also gave an AUC (RDEA119; screen: GDSC drug entry 1526) of 0.824, an IC50 (RDEA119; screen: GDSC drug entry 1526) of 2760 nM and an AUC (5-Fluorouracil) of 0.926. The IC50 (5-Fluorouracil) was > 32 µM.

“COR-L95 (small cell lung carcinoma, adherent)” was tested, and the AUC (OSU-03012) was 0.961, the IC50 (OSU-03012) was > 16 µM and the AUC (QS11) was 0.967. The IC50 (QS11) was > 10.2 µM, the AUC (AC220) was 0.983 and the IC50 (AC220) was > 1020 nM. It also gave an AUC (JNK-9L) of 0.769, an IC50 (JNK-9L) of 2240 nM and an AUC (CUDC-101) of 0.907. The IC50 (CUDC-101) was > 5120 nM, the AUC (RDEA119; screen: GDSC drug entry 1014) was 0.977 and the IC50 (RDEA119; screen: GDSC drug entry 1014) was > 5000 nM. For the same cell line, the AUC (RDEA119; screen: GDSC drug entry 1526) was 0.985, the IC50 (RDEA119; screen: GDSC drug entry 1526) was > 5000 nM and the AUC (5-Fluorouracil) was 0.767. For the same cell line, the IC50 (5-Fluorouracil) was 13.7 µM.

With NB12 (neuroblastoma, adherent) the AUC (OSU-03012) was 0.853, the IC50 (OSU-03012) was > 16 µM and the AUC (QS11) was 0.963. For the same cell line, the IC50 (QS11) was > 10.2 µM, the AUC (AC220) was 0.889 and the IC50 (AC220) was > 1020 nM. It also gave an AUC (JNK-9L) of 0.567, an IC50 (JNK-9L) of 518 nM and an AUC (CUDC-101) of 0.129. For the same cell line, the IC50 (CUDC-101) was < 20 nM, the AUC (RDEA119; screen: GDSC drug entry 1014) was 0.963 and the IC50 (RDEA119; screen: GDSC drug entry 1014) was > 5000 nM. For the same cell line, the AUC (RDEA119; screen: GDSC drug entry 1526) was 0.666, the IC50 (RDEA119; screen: GDSC drug entry 1526) was 1070 nM and the AUC (5-Fluorouracil) was 0.797. The IC50 (5-Fluorouracil) was 21.4 µM.

NCI-H727 (lung carcinoid, adherent) was tested, and the AUC (OSU-03012) was 0.536, the IC50 (OSU-03012) was 1.33 µM and the AUC (QS11) was 0.79. For the same cell line, the IC50 (QS11) was 8.53 µM, the AUC (AC220) was 0.972 and the IC50 (AC220) was > 1020 nM. For the same cell line, the AUC (JNK-9L) was 0.525, the IC50 (JNK-9L) was 391 nM and the AUC (CUDC-101) was 0.817. For the same cell line, the IC50 (CUDC-101) was > 5120 nM, the AUC (RDEA119; screen: GDSC drug entry 1014) was 0.856 and the IC50 (RDEA119; screen: GDSC drug entry 1014) was > 5000 nM. It also gave an AUC (RDEA119; screen: GDSC drug entry 1526) of 0.577, an IC50 (RDEA119; screen: GDSC drug entry 1526) of 580 nM and an AUC (5-Fluorouracil) of 0.938. The IC50 (5-Fluorouracil) was > 32 µM.

JHU-022 (head and neck, adherent) was tested, and the AUC (OSU-03012) was 0.801, the IC50 (OSU-03012) was 10.3 µM and the AUC (QS11) was 0.981. For the same cell line, the IC50 (QS11) was > 10.2 µM, the AUC (AC220) was 0.982 and the IC50 (AC220) was > 1020 nM. It also gave an AUC (JNK-9L) of 0.799, an IC50 (JNK-9L) of 3240 nM and an AUC (CUDC-101) of 0.666. For the same cell line, the IC50 (CUDC-101) was 1050 nM, the AUC (RDEA119; screen: GDSC drug entry 1014) was 0.624 and the IC50 (RDEA119; screen: GDSC drug entry 1014) was 752 nM. The AUC (RDEA119; screen: GDSC drug entry 1526) was 0.533, the IC50 (RDEA119; screen: GDSC drug entry 1526) was 395 nM and the AUC (5-Fluorouracil) was 0.978. For the same cell line, the IC50 (5-Fluorouracil) was > 32 µM.

OVKATE (ovary, adherent) was tested, and the AUC (OSU-03012) was 0.84, the IC50 (OSU-03012) was > 16 µM and the AUC (QS11) was 0.979. For the same cell line, the IC50 (QS11) was > 10.2 µM, the AUC (AC220) was 0.937 and the IC50 (AC220) was > 1020 nM. For the same cell line, the AUC (JNK-9L) was 0.828, the IC50 (JNK-9L) was > 5120 nM and the AUC (CUDC-101) was 0.493. The IC50 (CUDC-101) was 301 nM, the AUC (RDEA119; screen: GDSC drug entry 1014) was 0.933 and the IC50 (RDEA119; screen: GDSC drug entry 1014) was > 5000 nM. For the same cell line, the AUC (5-Fluorouracil) was 0.976 and the IC50 (5-Fluorouracil) was > 32 µM.

For HuO9 (osteosarcoma, adherent), the AUC (OSU-03012) was 0.947, the IC50 (OSU-03012) was > 16 µM and the AUC (QS11) was 0.984. The IC50 (QS11) was > 10.2 µM, the AUC (AC220) was 0.824 and the IC50 (AC220) was 700 nM. The AUC (JNK-9L) was 0.56, the IC50 (JNK-9L) was 475 nM and the AUC (CUDC-101) was 0.768. For the same cell line, the IC50 (CUDC-101) was 2130 nM, the AUC (RDEA119; screen: GDSC drug entry 1014) was 0.945 and the IC50 (RDEA119; screen: GDSC drug entry 1014) was > 5000 nM. The AUC (RDEA119; screen: GDSC drug entry 1526) was 0.959, the IC50 (RDEA119; screen: GDSC drug entry 1526) was > 5000 nM and the AUC (5-Fluorouracil) was 0.972. For the same cell line, the IC50 (5-Fluorouracil) was > 32 µM.

Cell Line RL (B-cell lymphoma, suspension) has an AUC (OSU-03012) of 0.828, an IC50 (OSU-03012) of 8.76 µM and an AUC (QS11) of 0.979. The IC50 (QS11) was > 10.2 µM, the AUC (AC220) was 0.99 and the IC50 (AC220) was > 1020 nM. The AUC (JNK-9L) was 0.78, the IC50 (JNK-9L) was 1930 nM and the AUC (CUDC-101) was 0.318. For the same cell line, the IC50 (CUDC-101) was 104 nM, the AUC (RDEA119; screen: GDSC drug entry 1014) was 0.99 and the IC50 (RDEA119; screen: GDSC drug entry 1014) was > 5000 nM. For the same cell line, the AUC (RDEA119; screen: GDSC drug entry 1526) was 0.976, the IC50 (RDEA119; screen: GDSC drug entry 1526) was > 5000 nM and the AUC (5-Fluorouracil) was 0.831. It also gave an IC50 (5-Fluorouracil) of 18 µM.
